Measured values reported in the antibiotic and cytotoxicity screens of Wong et al. (2023).
This is one part of the list.

Each compound was assayed on HSkMC (human skeletal muscle cells) (assay: cytotoxicity call (relative viability < 0.9)). Details: 10 µM.
In the case of `C[C@@H]1CN([C@@H](C)CO)C(=O)Cc2cc(NS(=O)(=O)c3cn(C)cn3)ccc2O[C@H]1CN(C)C(=O)Nc1ccc2c(c1)OCO2`, the cytotoxicity call is reported as “inactive”. `C[C@H](CO)N1C[C@H](C)[C@@H](CN(C)C(=O)c2ccccc2)OCCCC[C@H](C)Oc2ccc(NC(=O)Nc3ccc(F)cc3)cc2C1=O` was tested, and the cytotoxicity call was “inactive”. `CCN(CC)CCOC(=O)C1(C2CCCCC2)CCCCC1.Cl` was tested, and the cytotoxicity call was “inactive”. `CO[C@H]1C[C@H](O[C@H]2[C@H](C)[C@@H](O[C@H]3O[C@H](C)C[C@H](N(C)C)[C@H]3O)[C@@H](C)C[C@]3(CO3)C(=O)[C@H](C)[C@@H](O)[C@@H](C)[C@@H](C)OC(=O)[C@@H]2C)O[C@@H](C)[C@@H]1O` was tested, and the cytotoxicity call was “inactive”. `COc1ccc(S(=O)(=O)Nc2ccc3c(c2)C(=O)N([C@H](C)CO)C[C@H](C)[C@@H](CN(C)S(=O)(=O)c2cn(C)cn2)OCCCC[C@@H](C)O3)cc1` was tested, and the cytotoxicity call was “inactive”. In the case of `Cc1noc(C)c1NC(=O)N(C)C[C@@H]1Oc2ccc(NS(=O)(=O)c3ccccc3)cc2C(=O)N([C@H](C)CO)C[C@@H]1C`, the cytotoxicity call is reported as “inactive”. In the case of `NCc1cnco1`, the cytotoxicity call is reported as “inactive”. With `C[C@H](CO)N1C[C@H](C)[C@H](CN(C)Cc2ccncc2)Oc2ccc(NC(=O)Nc3cccc4ccccc34)cc2CC1=O` the cytotoxicity call was “active”. With `C[C@H](CO)N1C[C@H](C)[C@@H](CN(C)S(=O)(=O)c2ccc(F)cc2)OCCCC[C@H](C)Oc2ccc(NC(=O)Cc3ccccc3)cc2C1=O` the cytotoxicity call was “inactive”. `COc1ccc([C@H]2C/C=C\C[C@@H](c3cccc(Cl)c3)NC(=O)[C@H](c3ccccc3)CC(=O)N2)c(OC)c1` was tested, and the cytotoxicity call was “inactive”. For `CO[C@@H]1CN(C)C(=O)c2cc(NS(C)(=O)=O)ccc2OC[C@@H](C)N(C(=O)CN(C)C)C[C@@H]1C`, the cytotoxicity call was “inactive”.

These compounds were tested on HepG2 (assay: cytotoxicity call (relative viability < 0.9)). Details: 10 µM.
With `CCN(CC)CCOC(=O)C(c1ccccc1)c1ccccc1.Cl` the cytotoxicity call was “inactive”. For `CN(C)CCCNC(=O)C[C@@H]1CC[C@@H]2[C@H](COC[C@H](O)CN2S(=O)(=O)c2ccc(F)cc2)O1`, the cytotoxicity call was “inactive”. For `O=C(c1cccs1)N1c2ccccc2Sc2ccccc21`, the cytotoxicity call was “inactive”. `C[C@H]1CCCCO[C@@H](CN(C)Cc2ccc3c(c2)OCO3)[C@@H](C)CN([C@@H](C)CO)C(=O)c2cc(NC(=O)Cc3ccccc3)ccc2O1` was tested, and the cytotoxicity call was “inactive”. In the case of `COc1ccc(NC(=O)N(C)C[C@H]2Oc3ccc(NC(=O)CCCN(C)C)cc3C(=O)N([C@@H](C)CO)C[C@H]2C)cc1`, the cytotoxicity call is reported as “inactive”. With `COc1ccc(NC(=O)Nc2ccc3c(c2)C(=O)N([C@@H](C)CO)C[C@H](C)[C@@H](CN(C)Cc2ccc(Oc4ccccc4)cc2)O3)cc1` the cytotoxicity call was “inactive”. In the case of `C[C@@H]1CN([C@H](C)CO)C(=O)c2cccc(NC(=O)Nc3ccccc3)c2O[C@H]1CN(C)C(=O)Nc1cccc2ccccc12`, the cytotoxicity call is reported as “inactive”. In the case of `C[C@]12C[C@@H](O)[C@@H]3C[C@@]1(O[C@@H]1O[C@H](CO)[C@@H](O)[C@H](O)[C@H]1O)[C@@]3(COC(=O)c1ccccc1)C(=O)O2`, the cytotoxicity call is reported as “inactive”. `COc1ccc(S(=O)(=O)Nc2ccc3c(c2)C(=O)N([C@H](C)CO)C[C@H](C)[C@@H](CN(C)S(=O)(=O)c2ccccc2)O3)cc1` was tested, and the cytotoxicity call was “inactive”. In the case of `C[C@@H]1CN([C@H](C)CO)C(=O)c2cc(NS(=O)(=O)c3ccc(Cl)cc3)ccc2O[C@@H](C)CCCCO[C@@H]1CN(C)C(=O)c1ccccc1`, the cytotoxicity call is reported as “inactive”. With `CO[C@@H]1CN(C)C(=O)c2ccc(NC(=O)C3CCOCC3)cc2OC[C@@H](C)N(Cc2cccnc2)C[C@H]1C` the cytotoxicity call was “inactive”. With `CC(C)NC(=O)Nc1ccc2c(c1)C(=O)N(C)[C@@H]1CC[C@H](CC(=O)NCc3ccc(F)cc3)O[C@@H]1CO2` the cytotoxicity call was “inactive”. For `C[C@H](CO)N1C[C@H](C)[C@@H](CN(C)Cc2ccc3c(c2)OCO3)Oc2c(NS(=O)(=O)c3cn(C)cn3)cccc2C1=O`, the cytotoxicity call was “inactive”. `COCC#Cc1cnc2c(c1)C(=O)N([C@H](C)CO)C[C@H](C)[C@H](CN(C)C(=O)Nc1ccc(OC)cc1)O2` was tested, and the cytotoxicity call was “inactive”. `O=C(NCc1cccc(F)c1)[C@H]1[C@H](CO)[C@H]2Cn3c(cccc3=O)[C@@H]1N2C(=O)c1cnccn1` was tested, and the cytotoxicity call was “inactive”. In the case of `C[C@H](CO)N1C[C@H](C)[C@H](CN(C)C(=O)Nc2ccccc2)Oc2c(NC(=O)CCCCCC(=O)Nc3ccccc3N)cccc2C1=O`, the cytotoxicity call is reported as “inactive”. `Clc1ccc([C@@H](c2ccccc2Cl)C(Cl)Cl)cc1` was tested, and the cytotoxicity call was “inactive”. In the case of `O=c1c(O[C@@H]2O[C@H](CO)[C@@H](O)[C@H](O)[C@H]2O)c(-c2ccc(O)cc2)oc2cc(O)cc(O)c12`, the cytotoxicity call is reported as “inactive”.
